± gives the standard deviation of the averaged measurements. Some of the results follow.
What follows are sequences tested on PfAP2-EXP AP2 domain (GST-tagged) (assay: gcPBM binding intensity (ln(normalized median fluorescence intensity)); higher = stronger DNA binding).
Procedure, shortened: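 Binding intensity values are the highest Masliner-normalised natural-log median intensity among replicate spots of either probe orientation. The binding step lasted 1 h in 1× PBS with 1% milk, 0.2 mg/ml BSA, 0.5% salmon testes DNA and 0.03% Triton X-100, using GST-tagged P. falciparum DNA-binding domains expressed in E. coli on an Agilent 4 × 180k array of primer-extended double-stranded 36-bp intergenic genomic probes plus negative controls. Alexa488 anti-GST antibody and a 488 nm scan detected bound protein.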

Sequence	gcPBM binding intensity (ln)
AACATTTCCTTTCTGTGTACATATAAACCCATCTAT [XGTACX_site2071]	9.09 ± 0.45
ACGAAGATTTATCTTGCACACGCAAAAAAAAAAAAA [CACACA_site7933]	8.49 ± 0.44
AAAAAAAAAAAAAAAGCATGCACATATTATTTTTTT [TGCATGCA_site416]	9.03 ± 0.16
ATTATATTTTGTAAATGTACATTTATATATTTTGTA [XGTACX_site1226]	8.62 ± 0.36
ATTCATAAACGTGTGTTAATATGAATTTAAACATAA [XGTACX_negctrl_site213]	8.32 ± 0.4
ATTATAAGAAGGGGGGGTACATAAATATAAATGTAT [XGTACX_site5624]	10.4 ± 0.2
TTATTTAAAAAATTTTTAAATATACAAAAAAAAAAA [TGCATGCA_negctrl_site464]	8.38 ± 0.3
TTAATAATTAATTATAGTACACATTTATATTAATAA [XGTACX_site190]	8.38 ± 0.36
TTTAATTTTCGGTGTGCACACAACTATGAGTTTTTA [CACACA_site3034]	8.84 ± 0.22
TTTAAAAAAAAAAATACACACATAAAAATTTTCAAA [CACACA_site703]	8.31 ± 0.63
TCAAAAAAAATTTTAGTGCATATTTTAGTCAAAACA	8.38 ± 0.16
CATTCTACAATAAAAAGTACATATATATATTATATA [XGTACX_site921]	8.43 ± 0.34
ACACATATAATAGTTACATGCAAAAATACTTTTATT [TGCATGCA_site785]	8.78 ± 0.28
TTTTTATAACATAAAAGTACATATTTTTAATTTAAT [XGTACX_site4394]	8.05 ± 0.4
AAATTAAATGATAGAGCATGCGCTAAAAATGAGAAA [TGCATGCA_site937]	9.18 ± 0.42
TAATATTTCGTTAAGTTTTAAAGAAAAAAAAAAAAA [CACACA_negctrl_site1253]	8.3 ± 0.53
ATTTAAATAATATGTACACACATTTAAAAAGTTATA [CACACA_site7347]	8.37 ± 0.14
AAATTAAAAATAATTACACACATAGAAAAGTTATAT [CACACA_site7137]	8.61 ± 0.3
TTTTCAGAAAGACATGCATACAAAAATAAAAAAGAT [TGCATGCA_site814]	9.35 ± 0.42
TTTTGCAAATATTACTGTACACAATCTCATATAATT [XGTACX_site2584]	8.77 ± 0.45
ACCCAAGAGAAAAGAGAAAGAAATATGTGTATATTG [GTGCAC_negctrl_site214]	8.54 ± 0.42
AAAAAAAACAGACACACACACACATATACATACATA [CACACA_site2665]	8.41 ± 0.38

Sequence	gcPBM binding intensity (ln)
ATATATATATATATAACATGCAAAGTTCAAAAAAAA [TGCATGCA_site943]	10 ± 0.14
TTATAGTAATAATAATGTACATTTATACACATATAT [XGTACX_site1965]	8.56 ± 0.31
TTTTTTTTATTATAAATATATATATTATAAAACGAA [XGTACX_negctrl_site189]	8.29 ± 0.36
TTCTTTGTTTTTTTTTTTTTTTTAAAAGATAATATT [XGTACX_negctrl_site381]	8.43 ± 0.25
TTTATTTTTCATTGGGGTACACAAGTTTATTTTTGA [XGTACX_site4262]	8.96 ± 0.47
ATATCGTTTTTAAATTGTACATTCACTATAGAATAA [XGTACX_site6442]	8.45 ± 0.042
ATTTTTTCTTTTCGATGTACCCTTCTTATTCTTTAT [XGTACX_site3782]	9.26 ± 0.69
TATATCGCCTTCAAAAGTACTCATATAAAAAAAAAA [XGTACX_site7123]	8.36 ± 0.27
ATATATTTATTTTGTGCACACAACGCAAACCTTTTA [CACACA_site3508]	9.165 ± 0.078
TTTGAACTTTTATATACACACATTATTATAGTATAG [CACACA_site6851]	8.38 ± 0.38
AGTTCATATTTAAAAAGTACATATTTAAAAACTTCT [XGTACX_site4882]	8.26 ± 0.36
AAAAAAAAAAAAAAATGTACTTTTATTATTAATATA [XGTACX_site6357]	8.22 ± 0.17
ATGCATATATTTATGTGTACATATATTTGTAGGGGG [XGTACX_site6063]	10.6 ± 0.19
ATTAATTAAAATAGTTGTACAATCAAAAAAACAAAA [XGTACX_site7660]	9.05 ± 0.5
AACAAAGAGAAATAAACACACACAAAATAAAGAAAA [CACACA_site8704]	8.87 ± 0.62
TTTTTGTATGCTTCCCGACTACATTATGTCGTAAAT [GTGCAC_negctrl_site164]	8.95 ± 0.45
ATATCGAAAATTTGGTGTACATTTTTATTTGTTCAA [XGTACX_site3094]	8.55 ± 0.35
AGAATATATAAGTATACACACATATATATATATATA [CACACA_site201]	10.1 ± 0.38
TATAAAATAATTAAATGTACATAATATATAAAATAT [XGTACX_site6777]	8.72 ± 0.36
TTATAAATATTCACTGTGCACTGATGGAATATAAAT [GTGCAC_site9739]	8.64 ± 0.15
GATATTACGTGTTTGGTATTTTTTGATGTTAATAGG [CACACA_negctrl_site105]	8.8 ± 0.52
TTTTTATTTTTTTATGCATGTGATGAAACGTGCCTA [TGCATGCA_site141]	8.9 ± 0.37

Sequence	gcPBM binding intensity (ln)
TAATAAATCAAATGCACACACACAAAAAAAAAAAAA [CACACA_site161]	8.36 ± 0.57
ATAATTAACAAATACACACACACACCCAGACAAAAA [CACACA_site4445]	9.04 ± 0.28
AACAATTAGAATAACGCATGCATTTATAATATAGAA [TGCATGCA_site595]	9.52 ± 0.071
TGTGTATATATAAATACACACCAAATGTTAATATAT [CACACA_site8501]	8.28 ± 0.28
AATATGTCTTAAAAAAGTACATAAATTTTAACTTCA [XGTACX_site6670]	8.215 ± 0.049
TTTTTAATCATAATATGTACATATAAAAATGGTTTG [XGTACX_site3996]	8.49 ± 0.4
AAACAAATAAAAATATGTACACATTTTTTCATTATG [XGTACX_site5449]	8.39 ± 0.19
AAAATATTAAATATGTGTACATATAATAGTTCAATG [XGTACX_site5957]	8.41 ± 0.29
TTAAAAGAAAATAGGTGTACACATAATATATACATA [XGTACX_site7697]	8.92 ± 0.057
TCATATATATATATATGTACATATTTATGTATGTAT [XGTACX_site6291]	8.45 ± 0.16
ACATAGATCATAGGTTGTACGAAGGTATCCTTTATT [XGTACX_site694]	8.55 ± 0.4
ACTTTTTGAATGTTTGCACACAAATCTCATAATTTT [CACACA_site358]	8.79 ± 0.42
TTTTTCTTTGAATAAATACACACGAGAAATGAAAGT [CACACA_site1688]	8.99 ± 0.34
AAAAGGAGCAAATACAAAAAAATGAACAAAAAAAAA [CACACA_negctrl_site716]	8.78 ± 0.49
TTTTGTAATGCTTTTTTTTTTTTTTTTTTTTTTTTT [CACACA_negctrl_site932]	9.15 ± 0.13
CATACCTATAGACACACACACACACGCACGCACAAA [CACACA_site6374]	8.69 ± 0.42
ACCATATATTAAAAAGTGCATTAAATATATAAATAT [GTGCAC_site9443]	8.93 ± 0.38
AATAGAAATTATATAAACATAAATGAATAAATAAAT [CACACA_negctrl_site1817]	8.53 ± 0.4
AGTATTATTTACTGCGCATGCTATTTATATATATTA [TGCATGCA_site876]	9.01 ± 0.44
AATTAAATGGATAAATGTACATATGTGAATATATTT [XGTACX_site84]	8.87 ± 0.26
AATTATCAGGAATGATGTACTGAAATAAAAAAAAAA [XGTACX_site3280]	8.6 ± 0.47
CTACATATGTATAATATGCACACGTCATTTTCCCCT [CACACA_site2107]	8.88 ± 0.23

Sequence	gcPBM binding intensity (ln)
ATTTTATTTAAATACACACACATATATATATTATAT [CACACA_site4607]	8.75 ± 0.37
CACAGACACCCATACACACACATACCCATATATATA [CACACA_site5023]	8.79 ± 0.32
ACACAAAAATGAAAAATGAAAAGGGTAATATATATA [CACACA_negctrl_site1490]	9.06 ± 0.17
AAAAAAAAAAAAAAAGCACACATCATATTTTAATTC [CACACA_site9109]	8.46 ± 0.39
ATACTGTATAGTCGCACACAAAAATATAAAATATTT [CACACA_site6004]	8.4 ± 0.45
AAAATTTGAAAAAGGGGTACTTAATAAAAGTTTCAT [XGTACX_site932]	8.4 ± 0.31
TTACACAAGGATAAAAACATATGTATGATTATATAT [CACACA_negctrl_site654]	8.61 ± 0.54
TATATCAAAAACGAGACATGCATGCCGTTCATTTTG [TGCATGCA_site211]	8.95 ± 0.28
GAGTTTATATTTTAAGCATGCATATGTTATTATTAT [TGCATGCA_site1049]	9.17 ± 0.45
AAAAAAACAGAAAACACACAAATTATCTTATAATTA [CACACA_site6282]	8.3 ± 0.46
TATATAAGAATATATACACACATATCTGTATTTATA [CACACA_site5231]	8.15 ± 0.35
TTATTAACGGAACTCTGTACTTAAAAAATTTTAGAA [XGTACX_site8787]	8.3 ± 0.26
ATTGTTTCATTAAAATGTACATAAATTGTGTATAAT [XGTACX_site5341]	8.55 ± 0.28
AATAAAATAAAAAAAAATAAAAAAAAAATAAAAAAT [XGTACX_negctrl_site245]	8.38 ± 0.45
TATATATATATTTAATGTACATGTTTATTTTATCAT [XGTACX_site499]	9.5 ± 0.11
TTTATAAAGGGAAAGGTGCAAAAGGTGAAAGTTTTA	9.29 ± 0.24
TATTTTTCTTTTTAAGTGCATGGTTGTATAAAATTT [GTGCAC_site9480]	8.73 ± 0.44
TCTTTTTTGAAGCATTTTGTTTTTTAATAAGTAAAA [TGCATGCA_negctrl_site247]	8.31 ± 0.42
ATATAATGAAGTGAATGTACATATAAAATGTAAAAA [XGTACX_site8052]	8.73 ± 0.24
TCAAATTTAATCATAACACACATTCACATATGAATT [CACACA_site3199]	8.19 ± 0.56
ATATAACATTGTTTTGCATGTAAATATTCAATTTTT [TGCATGCA_site758]	8.96 ± 0.15
TCAAAATATCCAAAAGAATAAAGAAAAAAAAAAAGA [CACACA_negctrl_site1377]	8.41 ± 0.43
